According to the supplement of paper PMC12217912:
The list shows a part of the results. The full chains were built here from the parent and the listed change. Inactive controls read about 0.05.

B1: TEV protease; numbered along this chain (parent)
chain: MGESLFKGPRDYNPISSSICHLTNESDGHTTSLYGIGFGPFIITNKHLFRRNNGTLVVQSLHGVFKVKDTTTLQQHLVDGRDMIIIRMPKDFPPFPQKLKFREPQREERICLVTTNFQTKSMSSMVSDTSCTFPSGDGIFWKHWIQTKDGQCGSPLVSTRDGFIVGIHSASNFTNTNNYFTSVPKNFMELLTNQEAQQWVSGWRLNADSVLWGGHKVFMVKPEEPFQPVKEATQL

Variants of: B1
Assay: raw area under fraction-flipped curve 0-4 h after induction (AUC4h, not background-subtracted), DNA-recorder readout of cleavage of the substrate (dimensionless); higher = more cleavage of the substrate by the protease variant
Conditions: temperature: 34 °C; time window: 0-4 h after rhamnose induction
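Further: Bxb1 expression induced with 0.2% (w/v) L-rhamnose at OD600 near 0.5, cultures sampled hourly, flipped fraction per protease–substrate barcode pair counted by paired-end Illumina sequencing.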

Variant | area with substrate ENDYFQS | area with substrate ENEYFQS | area with substrate ENKYFQS | area with substrate ENSYFQS | area with substrate ENFYFQS | area with substrate ENGYFQS | area with substrate ENHYFQS | area with substrate ENIYFQS | area with substrate ENMYFQS | area with substrate ENQYFQS
MGESLFKGPRDYNPISSSICHLTNESDGHTTSLYGIGFGPFIITNKHLFRRNNGTLVVQSLHGVFKVKDTTTLQQHLVDGRDMIIIRMPKDFPPFPQKLKFREPQREERICLVTTNFQTKSMSSMVSDTSCTFPSGDGIFWKHWIQTKDGQCGSPLVSTRDGFIVGIHSASNFTNTNNYFDSVPKNFMELLTNQEAQQWVSGWRLNADSVLWGGHKVFMVKPEEPFQPVKEATQL [T181D] | 0.0658 | 0.0602 | 0.0524 | 0.0557 | – | – | – | – | – | –
MGESLFKGPRDYNPISSSICHLTNESDGHTTSLYGIGFGPFIITNKHLFRRNNGTLVVQSLHGVFKVKDTTTLQQHLVDGRDMIIIRMPKDFPPFPQKLKFREPQREERICLVTTNFQTKSMSSMVSDTSCTFPSGDGIFWKHWIQTKDGQCGSPLVSTRDGFIVGIHSASNFTNTNNYFTSVPKNFMELLTNQEAQQWVSGWRLNADSVLWGGHKVFMVKPEEPFQPVKEAFQL [T233F] | 0.061 | 0.0612 | – | 0.089 | 0.0717 | 0.066 | 0.0613 | 0.0949 | 0.0937 | 0.0657
MGESLFKGPRDYNPISSSICHLTNESDGHTTSLYGIGFGPFIITNKHLFRRNNGTLVVQSLHGVFKVKDTTTLQQHLVDGRDMIIIRMPKDFPPFPQKLKFREPQREERICLVTTNFQTKSMSSMVSDTSCTFPSGDGIFWKHWIQTKDGQCGSPLVSTRDGFIVGIHSASNFTNTNNYFTSVPKNFMELLTNQEAQQWVSGWRLNADSVLWGGHKVFMVKPEEPFQPVKEAVQL [T233V] | 0.0746 | – | – | 0.0693 | 0.0593 | 0.0594 | – | – | – | 0.0526
MGESLFKGPRDYNPISSSICHLTNESDGHTTSLYGIGFGPFIITNKHLFRRNNGTLVVQSLHGVFKVKDTTTLQQHLVDGRDMIIIRMPKDFPPFPQKLKFREPQREERICLVTTNFQTKSMSSMVSDTSCTFPSGDGIFWKHWIQTKDGQCASPLVSTRDGFIVGIHSASNFTNTNNYFTSVPKNFMELLTNQEAQQWVSGWRLNADSVLWGGHKVFMVKPEEPFQPVKEATQL [G153A] | 0.0572 | – | – | – | – | – | – | – | 0.0505 | –
MGESLFKGPRDYNPISSSICHLTNESDGHTTSLYGIGFGPFIITNKHLFRRNNGTLVVQSIHGVFKVKDTTTLQQHLVDGRDMIIIRMPKDFPPFPQKLKFREPQREERICLVTTNFQTKSMSSMVSDTSCTFPSGDGIFWKHWIQTKDGQCGSPLVSTRDGFIVGIHSASNFTNTNNYFTSVPKNFMELLTNQEAQQWVSGWRLNADSVLWGGHKVFMVKPEEPFQPVKEATQL [L61I] | 0.0548 | 0.0676 | – | 0.0644 | – | 0.0512 | – | – | – | –
MGESLFKGPRDYNPISSSICHLTNESDGHTTSLYGIGFGPFIITNKHLFRRNNGTLVVQSLHGVFKVKDTTTLQQHLVDGRDMIIIRMPKDFPPFPQKLKFREPQREERICLVTTNFQTKSMSSMVSDTSCTFPSGDGIFWKHWIQTKDGQCGSPLVSTRDGFIVGIHSASNFTNTNNYFTSVPKNFMELLTNQEAQQWVSGWRLNADSVLWGGHKVCMVKPEEPFQPVKEATQL [F218C] | 0.0533 | – | 0.0816 | – | 0.0673 | 0.0656 | 0.0636 | 0.0962 | 0.0712 | 0.0331
MGESLFKGPRDYNPISSSICHLTNESDGHTTSLYGIGFGPFIITNKHLFRRNNGTLVVQSLHGVFKVKDTTTLQQHLVDGRDMIIIRMPKDFPPFPQKLKFREPQREERICLVTTNFQTKSMSSMVSDTSCTFPSGDIIFWKHWIQTKDGQCGSPLVSTRDGFIVGIHSASNFTNTNNYFTSVPKNFMELLTNQEAQQWVSGWRLNADSVLWGGHKVFMVKPEEPFQPVKEATQL [G138I] | 0.0504 | 0.0592 | – | 0.0578 | 0.0561 | 0.0418 | 0.0591 | – | – | –
MGESLFKGPRDYNPISSSICHLTNESDGHTTSLYGIGFGPFIITNKHLFRRNNGTLVVQSLHGVFKVKDTTTLQQHLVDGRDMIIIRMPKDFGPFPQKLKFREPQREERICLVTTNFQTKSMSSMVSDTSCTFPSGDGIFWKHWIQTKDGQCGSPLVSTRDGFIVGIHSASNFTNTNNYFTSVPKNFMELLTNQEAQQWVSGWRLNADSVLWGGHKVFMVKPEEPFQPVKEATQL [P93G] | 0.0676 | – | – | 0.0613 | 0.0685 | 0.0628 | 0.0472 | 0.102 | – | 0.0515
MGESLFKGERDYNPISSSICHLTNESDGHTTSLYGIGFGPFIITNKHLFRRNNGTLVVQSLHGVFKVKDTTTLQQHLVDGRDMIIIRMPKDFPPFPQKLKFREPQREERICLVTTNFQTKSMSSMVSDTSCTFPSGDGIFWKHWIQTKDGQCGSPLVSTRDGFIVGIHSASNFTNTNNYFTSVPKNFMELLTNQEAQQWVSGWRLNADSVLWGGHKVFMVKPEEPFQPVKEATQL [P9E] | 0.0655 | 0.0596 | 0.0401 | – | 0.0658 | 0.0643 | 0.0383 | – | 0.0898 | –
MGESLFKGPRDYNPISSSICHLTNESDGHTTSLYGIGFGPFIITNKHLFRRNNGTLVVQSLHGVFKVKDTTTLQQHLVDGRDMIIIRMPKDFPPFPQKLKFREPQREERICLVTTNFQTKSMSSMVSDTSCTFPSGDGIFWKHWIQTKDGQCGSPLVSTRDGFIVGIHSASNFTNTNNYFTSVPKNFMELLTNQEAQQWVSGWRLNAASVLWGGHKVFMVKPEEPFQPVKEATQL [D208A] | 0.0598 | – | – | – | 0.0761 | – | – | – | – | –
MGESLFKGPRDYNPISSSICHLTNESDGHTTSLYGIGFGPFIITNKHLFRRNNGTLVVQSLHGVFKVKDTTTLQQHLVDGRDMIIIRMPKDFPPFPQKLKFREPQREERICLVTTNFQTKSMSSMVSDTSCTFPSGDGIFWKHWIQTKDGQCGSPLVSTRDGFIVGIHSASNFTNTNNYFTSVPKNFMEILTNQEAQQWVSGWRLNADSVLWGGHKVFMVKPEEPFQPVKEATQL [L190I] | 0.0614 | – | – | 0.0607 | – | 0.047 | 0.0482 | – | – | 0.104

Same assay, conditions: temperature: 34 °C; time window: 0-4 h after rhamnose induction

Variant | area with substrate ENRYFQS | area with substrate ENVYFQS | area with substrate ENYYFQS | area with substrate ENWYFQS | area with substrate ENTYFQS | area with substrate ENNYFQS | area with substrate ENPYFQS
MGESLFKGPRDYNPISSSICHLTNESDGHTTSLYGIGFGPFIITNKHLFRRNNGTLVVQSLHGVFKVKDTTTLQQHLVDGRDMIIIRMPKDFPPFPQKLKFREPQREERICLVTTNFQTKSMSSMVSDTSCTFPSGDGIFWKHWIQTKDGQCGSPLVSTRDGFIVGIHSASNFTNTNNYFTSVPKNFMELLTNQEAQQWVSGWRLNADSVLWGGHKVFMVKPEEPFQPVKEAFQL [T233F] | 0.0668 | 0.0691 | 0.059 | – | – | – | –
MGESLFKGPRDYNPISSSICHLTNESDGHTTSLYGIGFGPFIITNKHLFRRNNGTLVVQSLHGVFKVKDTTTLQQHLVDGRDMIIIRMPKDFPPFPQKLKFREPQREERICLVTTNFQTKSMSSMVSDTSCTFPSGDGIFWKHWIQTKDGQCGSPLVSTRDGFIVGIHSASNFTNTNNYFTSVPKNFMELLTNQEAQQWVSGWRLNADSVLWGGHKVFMVKPEEPFQPVKEAVQL [T233V] | – | 0.0803 | – | 0.0076 | – | – | –
MGESLFKGPRDYNPISSSICHLTNESDGHTTSLYGIGFGPFIITNKHLFRRNNGTLVVQSLHGVFKVKDTTTLQQHLVDGRDMIIIRMPKDFPPFPQKLKFREPQREERICLVTTNFQTKSMSSMVSDTSCTFPSGDGIFWKHWIQTKDGQCASPLVSTRDGFIVGIHSASNFTNTNNYFTSVPKNFMELLTNQEAQQWVSGWRLNADSVLWGGHKVFMVKPEEPFQPVKEATQL [G153A] | – | – | – | 0.0979 | 0.047 | – | –
MGESLFKGPRDYNPISSSICHLTNESDGHTTSLYGIGFGPFIITNKHLFRRNNGTLVVQSIHGVFKVKDTTTLQQHLVDGRDMIIIRMPKDFPPFPQKLKFREPQREERICLVTTNFQTKSMSSMVSDTSCTFPSGDGIFWKHWIQTKDGQCGSPLVSTRDGFIVGIHSASNFTNTNNYFTSVPKNFMELLTNQEAQQWVSGWRLNADSVLWGGHKVFMVKPEEPFQPVKEATQL [L61I] | 0.0379 | 0.0947 | – | – | – | 0.0634 | 0.0391
MGESLFKGPRDYNPISSSICHLTNESDGHTTSLYGIGFGPFIITNKHLFRRNNGTLVVQSLHGVFKVKDTTTLQQHLVDGRDMIIIRMPKDFPPFPQKLKFREPQREERICLVTTNFQTKSMSSMVSDTSCTFPSGDGIFWKHWIQTKDGQCGSPLVSTRDGFIVGIHSASNFTNTNNYFTSVPKNFMELLTNQEAQQWVSGWRLNADSVLWGGHKVCMVKPEEPFQPVKEATQL [F218C] | – | – | – | 0.0534 | 0.0376 | 0.0608 | 0.0553
MGESLFKGPRDYNPISSSICHLTNESDGHTTSLYGIGFGPFIITNKHLFRRNNGTLVVQSLHGVFKVKDTTTLQQHLVDGRDMIIIRMPKDFPPFPQKLKFREPQREERICLVTTNFQTKSMSSMVSDTSCTFPSGDIIFWKHWIQTKDGQCGSPLVSTRDGFIVGIHSASNFTNTNNYFTSVPKNFMELLTNQEAQQWVSGWRLNADSVLWGGHKVFMVKPEEPFQPVKEATQL [G138I] | 0.0615 | – | – | 0.0481 | – | 0.0387 | –
MGESLFKGPRDYNPISSSICHLTNESDGHTTSLYGIGFGPFIITNKHLFRRNNGTLVVQSLHGVFKVKDTTTLQQHLVDGRDMIIIRMPKDFGPFPQKLKFREPQREERICLVTTNFQTKSMSSMVSDTSCTFPSGDGIFWKHWIQTKDGQCGSPLVSTRDGFIVGIHSASNFTNTNNYFTSVPKNFMELLTNQEAQQWVSGWRLNADSVLWGGHKVFMVKPEEPFQPVKEATQL [P93G] | – | 0.0742 | 0.0535 | – | 0.0503 | 0.0373 | –
MGESLFKGERDYNPISSSICHLTNESDGHTTSLYGIGFGPFIITNKHLFRRNNGTLVVQSLHGVFKVKDTTTLQQHLVDGRDMIIIRMPKDFPPFPQKLKFREPQREERICLVTTNFQTKSMSSMVSDTSCTFPSGDGIFWKHWIQTKDGQCGSPLVSTRDGFIVGIHSASNFTNTNNYFTSVPKNFMELLTNQEAQQWVSGWRLNADSVLWGGHKVFMVKPEEPFQPVKEATQL [P9E] | 0.0581 | 0.0679 | – | – | 0.0537 | – | 0.0595
MGESLFKGPRDYNPISSSICHLTNESDGHTTSLYGIGFGPFIITNKHLFRRNNGTLVVQSLHGVFKVKDTTTLQQHLVDGRDMIIIRMPKDFPPFPQKLKFREPQREERICLVTTNFQTKSMSSMVSDTSCTFPSGDGIFWKHWIQTKDGQCGSPLVSTRDGFIVGIHSASNFTNTNNYFTSVPKNFMEILTNQEAQQWVSGWRLNADSVLWGGHKVFMVKPEEPFQPVKEATQL [L190I] | 0.0574 | 0.082 | – | – | – | 0.0555 | 0.0501
